The supplement of paper PMC3334620
Whole data set: some 33,000 sequences, median “E-score (-0.5 to 0.5)” near -0.016, cut for the highest 2% near 0.31. The list shows a part of the results.

Target: Cst6 (UniProt P40535)
Experiment: PBM E-score (8-mer binding enrichment) (E-score (-0.5 to 0.5)); higher = stronger / more preferred TF binding; most listed sequences are background and not binding sites
Conditions: protein concentration: 200 nM; construct: GST-DNA-binding domain
Summary of the method: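 PURExpress in vitro transcription/translation supplied GST-tagged yeast transcription factors, either full-length or DNA-binding domain. Applied at about 100-200 nM to universal all-10-mer Agilent arrays double-stranded by primer extension, the bound protein was detected with fluorescent anti-GST. E-scores, modified Wilcoxon-Mann-Whitney statistics, were given by the Universal PBM Analysis Suite to ungapped eight-base words pooled with their reverse complements after masliner normalisation.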

Sequence	PBM E-score
CGGGTATA	0.0585
CCGCTGGC	-0.115
GAAACACC	0.0585
CATAAGGG	0.0526
GCCCACTA	-0.219
AGCCTATA	0.0298
AGTCCCCG	-0.388
AATTGATC	0.0237
AGTGAGAT	0.099
AATAGATG	0.268
GTTAGTTA	0.227
CGTGCTGC	-0.0889
GCCGAGCC	0.00552
ACACTCGA	-0.0775
CACTGTCC	-0.0417
AACTGATA	0.152
CTGCAACC	-0.19
CATTTGAA	0.134
CTCTCCGC	-0.078
GTACTTTA	0.138
CCCAGCCG	-0.253
TAGTGAAA	-0.00366
CGTACTAG	-0.0411
GGACCTTA	-0.223
CCCTAGGC	-0.201

Sequence	PBM E-score
ATGACCGA	0.184
CTACCCGA	-0.087
AGAGGCGG	-0.149
AAACTCTG	0.0867
CGGGCACC	-0.0698
AAAAGTTC	0.154
ATTTTCTA	0.211
GGTACCAA	-0.188
CTCCCTTA	-0.223
CCCATGTC	-0.0686
CCATCCTA	-0.123
CGGGCCAC	-0.172
TAGAATCA	0.0982
ATTAACCC	0.0217
ACTAGTGA	0.0612
GCAGCCGC	-0.0375
CTAAATTA	0.262
GGTCGCCA	-0.303
GCTTGGAC	-0.338
AGTAGCGC	0.0288
AAAACTTG	0.188
CACGGGAC	-0.13
GCCCAAGC	-0.224
AATGCGAC	0.172
GGATCTAC	-0.146

Sequence	PBM E-score
ATACAAGA	-0.0014
AACTGACC	-0.182
CGATGTAA	0.117
CTCCATCC	-0.24
GGTATGGA	-0.192
AACAACCA	0.187
ACGCGTAG	-0.125
CATCACGG	0.242
CTAAGCAC	0.0393
GACTAGGC	-0.106
CCCAATGA	0.193
AAGGTGCT	-0.145
TCGAAAGA	0.0871
ATAGCTTG	0.0183
ACGCTGAT	0.119
AACCGGCT	-0.214
GTAAAATA	0.0657
CAGTGTCC	-0.112
CCACCTTA	-0.0336
GTCAGGAA	0.0884
AATTGGTG	0.187
GCGTCCAC	-0.0955
ACGGCGTC	0.347
CGTATAAC	0.261
GCTTAAAA	0.159

Sequence	PBM E-score
CATTTCCA	0.143
ATACTGCC	-0.0935
AATGAGCG	0.139
CGATATCC	-0.00743
CGCGGGAA	-0.134
GTGAGTTA	0.0284
AGTGATGA	0.284
CTCGCAAG	0.0742
AGTATTAA	0.229
CAACTGAA	-0.0694
ATGGGGCA	-0.0725
GGAGATCA	-0.0624
ACCCAGGC	-0.183
CCGCCGAA	0.081
AACAAGTC	0.0338
CTCGGGGA	-0.162
AAGACATA	0.0804
CTCCAGAA	-0.175
ACATCTAT	0.228
GGACATAA	0.0407
AGCACCCC	-0.271
CGGCGGTC	-0.132
CCTCACTC	0.0262
AGGCTAAC	-0.114
GTGTTGTA	0.211

Sequence	PBM E-score
CAACACCC	-0.142
CTCGCCCC	-0.346
TAGTAAGA	0.137
ATAATAAG	0.234
GCACGGGC	-0.287
ATCTTTTA	0.197
AAAGCCGT	0.223
CTGAATGA	0.21
CTACAGCC	-0.156
CTAGGAAC	-0.175
AAAACTGC	0.0422
AACCGTTG	0.0287
CGTGGACA	-0.00761
ACGGTCGA	-0.115
CGCATGCG	0.215
ACAGGGCC	-0.102
AGATTTTC	0.148
CGTCAGAC	0.287
AACGGCGC	0.251
GTCTTTTA	-0.0161
CGTCCGAA	0.087
CACGGCAG	0.142
AACGTAAA	0.274
ATGATGTG	0.333
ATAGGTCC	-0.0652

Sequence	PBM E-score
GCAAGTGC	-0.078
AACCCTAA	-0.154
ATAGAAGG	-0.208
AGCCCCTG	-0.341
AGTGCCCG	-0.107
CTGCGCTC	-0.292
ACGCGTCT	-0.0602
GACGTCAA	0.479
ATTGATGC	0.262
GCATAACA	0.124
CGATCGAG	-0.00323
AGAGGCCG	-0.252
ATATAAAA	0.291
CCGGCACA	-0.136
ACGGTTTA	-0.0486
ACTTATCT	0.134
GCTTTTAC	0.101
GTGAACGA	0.00799
CACGAGAA	-0.0289
GACCTAGC	-0.116
GCGGTTAA	-0.104
CTCGTGAA	0.108
CCATCGGA	-0.349
GCGGCCGC	0.0907
ACGAAGTC	-0.137

Sequence	PBM E-score
ACACTCAT	0.159
CCCTAATC	-0.188
CATGCCCA	-0.346
ACGAAAGG	0.0972
ATAAACGA	0.237
CAACGACG	0.0108
AGCGTGTG	0.00485
ACTCTAGA	0.0646
ATCTTGGA	-0.108
CGAGACAC	-0.253
GTTGTTTA	0.172
AGGCCAAC	-0.188
CTGAATCA	0.055
GCATGGAC	-0.0258
CAGACCGG	-0.114
ACGTGAGG	-0.0089
ATTAATGA	0.243
ATCAGAGG	0.144
AAACAATC	0.177
CAATCCCA	-0.322
ATACATGG	-0.121
CGCTTGAA	0.167
